# Where “and” joins values, the source holds several entries; their conditions need not be identical. Equal values may be shown once. The shares of active, inactive and inconclusive entries below differ from those in the screen. For some assays here: A potency beside an inconclusive call is a rough fit, not a confirmed value. Calls of active or inactive are those of the source. Unless noted, the call rests on the fitted dose curve; in most records, active means well fitted curve in the direction sought with a large enough effect in the repeat runs; inconclusive means weak or mixed curves; inactive means no such curve, though single readings can be large; an effect the other way counts as inactive or inconclusive.
# Columns and labels:
# [1] = qHTS RealTime-Glo MT Cell Viability Assay in HEK293 cells - 8 hour (AID 1224887); further: nearly all actives have a fitted effect of over 50% in size; further: potency means the concentration at half of the fitted maximal effect
# Procedure, shortened: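 Real-time viability in HEK293: signal arises when living cells convert a prosubstrate for NanoLuc in the medium, so luminescence tracks viable cell number. Compound (23 nL, DMSO) added 5 h post-seeding; kinetic reads at 0–40 h, 37 C.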
# [2] = qHTS assay to identify small molecule antagonists of the estrogen receptor alpha (ER-alpha) signaling pathway using the BG1 cell line in the presence of 0.1 nM 17-beta-estradiol - cell viability counter screen (AID 1259241); further: nearly all actives have a fitted effect of over 40% in size; further: potency means the concentration at half of the fitted maximal effect
# Procedure, shortened: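 VM7Luc4E2 cells (endogenous ER-alpha, 4×ERE-luciferase), hormone-starved 5 days in charcoal-stripped FBS, were treated with compounds plus 0.1 nM 17beta-estradiol for 22 hr at 37C; viability read in same wells as CellTiter-Fluor live-cell protease fluorescence.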
# [3] = target: Estrogen receptor beta (Homo sapiens) (UniProt Q92731); test: qHTS assay to identify small molecule agonists of the estrogen receptor beta (ER-beta) signaling pathway (AID 1259377; active means well fitted activation curve with a large enough effect in the signal ratio in the repeat runs, not every such curve was filed as active; inconclusive means weak or mixed curves, or effect the other way; the % refers to the signal ratio; further: potency means the concentration at half of the fitted maximal effect; on activation: on the % scale 0 is the no-effect control and ±100 the full control effect); conditions: ER-beta-UAS-bla HEK293T, beta-lactamase FRET ratio, 16 h; activation: at 92.4 µM (top of the series) unless noted
# Procedure, shortened: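 ER-beta-UAS-bla HEK293T (GripTite) cells carrying a UAS-driven beta-lactamase reporter, in medium with 2% charcoal-stripped FBS, were exposed to compounds for 16 hr at 37C; LiveBLAzer B/G FRET substrate was then added and fluorescence read after 2 hours at room temperature.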
# [4] = target: Estrogen receptor beta (Homo sapiens) (UniProt Q92731); test: qHTS assay to identify small molecule antagonists of the estrogen receptor beta (ER-beta) signaling pathway (AID 1259378; active means well fitted inhibition curve with a large enough effect in the signal ratio in the repeat runs, not every such curve was filed as active; inconclusive means weak or mixed curves, or effect the other way; inactive means no such curve, though single readings can be large or run the other way; the % refers to the signal ratio; further: potency means the concentration at half of the fitted maximal effect); conditions: ER-beta-UAS-bla HEK293T, beta-lactamase FRET ratio, 16 h; activity, negative = inhibition: at 92.4 µM (top of the series) unless noted
# Procedure, shortened: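 ER-beta-UAS-bla HEK293T (GripTite) cells in 2% charcoal-stripped FBS medium were preincubated 6 hr at 37C, dosed with compound, then stimulated with 1 nM E2 (final) for 16 hr; beta-lactamase reporter read by B/G FRET fluorescence after 2 hr substrate loading.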
# [5] = qHTS assay to identify small molecule agonists of the androgen receptor (AR) signaling pathway in the presence of an antagonist - cell viability counter screen (AID 1259379); further: potency means the concentration at half of the fitted maximal effect; nearly all actives have a fitted effect of over 25% in size
# Procedure, shortened: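 Cytotoxicity is assessed by CellTiter-Fluor in MDA-kb2 cells carrying an MMTV-driven luciferase reporter. Cells receive 3.0uM nilutamide plus compounds at 15 concentrations and incubate 16 hr at 37C without CO2 before fluorescence reading.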
# [6] = qHTS assay to identify small molecule antagonists of the sonic hedgehog signaling (Shh) pathway - cell viability counter screen (AID 1259367); further: nearly all actives have a fitted effect of over 55% in size; further: potency means the concentration at half of the fitted maximal effect
# Procedure, shortened: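 Conditioned medium drove Shh signaling in 3T3 Gli1-Luc cells exposed to compounds at 37C and 5% CO2. Viability was determined from CellTiter-Fluor fluorescence, with reagent incubated 1 hr after 23 hr of treatment.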
# [7] = qHTS assay to identify small molecule agonists of the sonic hedgehog signaling (Shh) pathway (AID 1259368; calls by dose curve; further: potency means the concentration at half of the fitted maximal effect; nearly all actives have a fitted effect of over 15% in size)
# Procedure, shortened: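 Cells of a mouse NIH/3T3 clone stably expressing luciferase under the Gli1 transcriptional response element are exposed to test chemicals for 24 hr at 37 C. Pathway activation is detected as a rise in luminescence.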
# [8] = qHTS RealTime-Glo MT Cell Viability Assay in HepG2 cells - 0 hour (AID 1224889); further: nearly all actives have a fitted effect of over 50% in size; further: potency means the concentration at half of the fitted maximal effect
# Procedure, shortened: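 Cell number in HepG2 cultures estimated from NanoLuc luminescence generated by metabolic reduction of a prosubstrate by living cells. The homogeneous, nonlytic format allowed repeated reads at 0, 8, 16, 24, 32 and 40 h of compound exposure.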
# [9] = A CellTox Green Cytotoxicity Assay to monitor cytotoxicity in HEK293 cells - 16 hour (AID 1224888); further: potency means the concentration at half of the fitted maximal effect; nearly all actives have a fitted effect of over 35% in size
# Procedure, shortened: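 Cells (HEK293, 600/well) and dye reagent are dispensed together. After 5 h at 37 C, 23 nL compound is pinned in. Plates stay at 37 C for 40 h with fluorescence read at 0h, 8h, 16h, 24h, 32h and 40h.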
# [10] = qHTS assay to identify small molecule HDAC inhibitors (AID 1259364);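 further: wild-type HCT-116 cells with endogenous class I/II HDAC activity; potency means the concentration at half of the fitted maximal effect; nearly all actives have a fitted effect of over 45% in size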
# Procedure, shortened: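 Cells (HCT-116, wild type) are seeded at 1,500 per well, incubated overnight, treated with compound in DMSO for 2 hr, then developed with HDAC-Glo I/II reagent for 30 min at room temperature.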
# [11] = qHTS assay to identify small molecule agonists of the sonic hedgehog signaling (Shh) pathway - cell viability counter screen (AID 1259366); further: potency means the concentration at half of the fitted maximal effect; nearly all actives have a fitted effect of over 50% in size
# Procedure, shortened: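 NIH/3T3-derived 3T3 Gli1-Luc cells (stable Gli1-responsive firefly luciferase reporter) were seeded, rested 4 hr at 37 C/5% CO2, then exposed to compounds in DMSO for 24 hr; viability was read by CellTiter-Fluor fluorescence in the same wells.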
# [12] = qHTS assay to identify small molecule antagonists of the androgen receptor (AR) signaling pathway using the MDA cell line in the presence of 0.5 nM R1881 - cell viability counter screen (AID 1259242); further: on the % scale 0 is the no-effect control and ±100 the full control effect; nearly all actives have a fitted effect of over 45% in size
# Procedure, shortened: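 Steps: plate MDA-kb2 cells, rest 5 hr at 37C without CO2; pin in compounds in DMSO; add R1881 to 0.5 nM final; incubate 16 hr; add CellTiter-Fluor, 30 min; read fluorescence.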
# [13] = target: Androgen receptor (Homo sapiens) (UniProt P10275); test: qHTS assay to identify small molecule antagonists of the androgen receptor (AR) signaling pathway using the MDA cell line in the presence of 0.5 nM R1881 (AID 1259243); further: potency means the concentration at half of the fitted maximal effect; nearly all actives have a fitted effect of over 50% in size
# Procedure, shortened: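 Stably transfected MDA-kb2 cells express luciferase from an MMTV promoter bearing both AR and GR response elements. Compounds plus 0.5 nM R1881 (final) were incubated 16 hr at 37C without CO2, then luminescence measured.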
# [14] = qHTS assay to identify small molecule antagonists of the sonic hedgehog signaling (Shh) pathway (AID 1259369; calls by dose curve; further: nearly all actives have a fitted effect of over 45% in size; further: potency means the concentration at half of the fitted maximal effect)
# Procedure, shortened: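 Cells are plated and held 4hr at 37 C, compounds (DMSO) are pinned in, conditioned medium is added to stimulate the pathway, and after 24hr luciferase reagent is added for 30min before luminescence is read.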
# [15] = A CellTox Green Cytotoxicity Assay to monitor cytotoxicity in HepG2 cells - 8 hour (AID 1224890); further: potency means the concentration at half of the fitted maximal effect; nearly all actives have a fitted effect of over 45% in size
# Procedure, shortened: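 Cells and non-lytic dye reagent are dispensed together (600 HepG2 cells/well) and incubated 5 h before DMSO compound transfer. Kinetic fluorescence is then recorded in the same wells during 40 h at 37 C.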
# Tags describe the fitted curve by direction and shape or compound fluorescence and quenching.
# UniProt Q92731, sequence (Q92731 whole entry, looked up): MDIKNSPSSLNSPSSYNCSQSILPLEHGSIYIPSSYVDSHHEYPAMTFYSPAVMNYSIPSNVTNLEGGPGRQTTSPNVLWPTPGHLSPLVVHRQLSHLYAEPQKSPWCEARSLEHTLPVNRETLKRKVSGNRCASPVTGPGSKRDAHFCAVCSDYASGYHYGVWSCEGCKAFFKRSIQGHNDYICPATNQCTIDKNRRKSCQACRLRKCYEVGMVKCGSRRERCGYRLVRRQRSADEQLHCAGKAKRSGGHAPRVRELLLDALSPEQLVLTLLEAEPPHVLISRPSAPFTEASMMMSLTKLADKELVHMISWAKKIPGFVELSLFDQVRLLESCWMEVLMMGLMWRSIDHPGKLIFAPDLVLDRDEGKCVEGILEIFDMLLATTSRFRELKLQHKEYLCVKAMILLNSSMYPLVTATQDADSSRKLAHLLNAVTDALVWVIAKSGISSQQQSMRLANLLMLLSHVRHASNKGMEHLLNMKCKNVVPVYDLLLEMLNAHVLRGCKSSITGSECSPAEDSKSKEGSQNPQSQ
# UniProt P10275, sequence (P10275 whole entry, looked up): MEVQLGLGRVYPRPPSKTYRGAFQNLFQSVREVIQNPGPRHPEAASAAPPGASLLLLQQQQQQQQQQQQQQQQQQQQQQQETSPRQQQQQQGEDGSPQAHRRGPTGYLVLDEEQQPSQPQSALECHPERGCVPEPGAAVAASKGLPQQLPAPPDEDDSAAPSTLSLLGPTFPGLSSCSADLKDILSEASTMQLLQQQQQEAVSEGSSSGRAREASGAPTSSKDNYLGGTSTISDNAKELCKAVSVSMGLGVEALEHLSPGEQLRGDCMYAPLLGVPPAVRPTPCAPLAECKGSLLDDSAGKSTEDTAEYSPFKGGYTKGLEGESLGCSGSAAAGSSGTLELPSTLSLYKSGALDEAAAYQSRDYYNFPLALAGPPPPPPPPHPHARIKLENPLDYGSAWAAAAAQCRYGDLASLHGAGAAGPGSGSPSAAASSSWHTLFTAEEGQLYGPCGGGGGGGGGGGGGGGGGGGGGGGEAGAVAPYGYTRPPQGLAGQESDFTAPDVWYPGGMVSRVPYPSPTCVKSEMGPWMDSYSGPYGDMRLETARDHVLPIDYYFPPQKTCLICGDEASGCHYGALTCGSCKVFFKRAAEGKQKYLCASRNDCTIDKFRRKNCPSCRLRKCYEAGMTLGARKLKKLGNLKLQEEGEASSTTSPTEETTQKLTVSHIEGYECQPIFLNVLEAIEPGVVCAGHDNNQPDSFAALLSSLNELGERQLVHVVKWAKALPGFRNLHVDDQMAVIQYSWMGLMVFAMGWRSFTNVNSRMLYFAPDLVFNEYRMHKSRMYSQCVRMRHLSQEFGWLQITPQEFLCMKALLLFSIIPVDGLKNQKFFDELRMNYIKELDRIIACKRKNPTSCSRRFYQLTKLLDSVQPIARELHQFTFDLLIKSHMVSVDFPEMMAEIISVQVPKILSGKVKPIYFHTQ
smiles,measurement,setting,value
c1ccc2c(c1)cc1ccc3cccc4ccc2c1c34,Potency,[1],"inconclusive: 19.9 µM [cytotoxic, full curve]"
same,Potency,[2],"inconclusive: 24.8 µM [rising, partial curve]"
same,Potency,[3],inconclusive: 31.2 µM [fluorescent]
same,Potency,[4],"inconclusive: 55.5 µM [fluorescent, partial curve]"
same,Potency,[5],"inconclusive: 27.8 µM [rising, partial curve]"
FC(F)(F)c1ccc(Cl)cc1,Potency,[1],inactive
same,Potency,[6],inactive
same,activation,[3],inconclusive: 13.2%
CCCCCC[n+]1ccccc1,Potency,[1],"inconclusive: 22.1 µM [cytotoxic, partial curve, poor fit] and inconclusive: 54.9 µM [cytotoxic, single point] and inconclusive: 34.7 µM [cytotoxic, partial curve]"
same,Potency,[2],inconclusive: 69.2 µM [cytotoxic]
same,Potency,[6],"inconclusive: 69.2 µM [cytotoxic, single point] and inconclusive: 69 µM [cytotoxic, single point]"
same,Potency,[5],"inconclusive: 68.6 µM [cytotoxic, single point] [middle of 5 runs]"
CC(C)C(Nc1ccc(C(F)(F)F)cc1Cl)C(=O)OC(C#N)c1cccc(Oc2ccccc2)c1 (configuration not stated),Potency,[1],"inconclusive: 62.2 µM [cytotoxic, single point]"
same,Potency,[7],"inconclusive: 54.9 µM [activator, partial curve, poor fit]"
Cc1cc(C)c(C2=C(OC(=O)CC(C)(C)C)C3(CCCC3)OC2=O)c(C)c1,Potency,[8],inactive
Nc1ccc(Cl)cc1N,Potency,[9],"inconclusive: 40.4 µM [activator, partial curve]"
same,Potency,[2],inactive
same,Potency,[10],"inconclusive: 28.4 µM [inhibitor, partial curve] and active: 19.3 µM"
same,Potency,[11],"inconclusive: 30.6 µM [rising, partial curve]"
same,Potency,[6],"inconclusive: 77 µM [cytotoxic, partial curve, poor fit]"
same,Potency,[3],"inconclusive: 31.9 µM [fluorescent, partial curve] and inconclusive: 21.7 µM [fluorescent, full curve]"
same,Potency,[5],"inconclusive: 15.4 µM [cytotoxic, full curve]"
C[C@]12CCC(=O)C[C@@H]1CC[C@@H]1[C@@H]2CC[C@]2(C)[C@@H](O)CC[C@@H]12,Potency,[8],"inconclusive: 43.1 µM [cytotoxic, partial curve] and inconclusive: 13.8 µM [cytotoxic, full curve]"
c1cc(OCC2CO2)ccc1Cc1ccc(OCC2CO2)cc1 (configuration not stated),Potency,[9],"inconclusive: 55.2 µM [activator, single point]"
same,Potency,[12],inactive
same,Potency,[13],"inconclusive: 61.4 µM [inhibitor, partial curve, poor fit]"
C=Cc1cccc(CCl)c1,Potency,[9],"inconclusive: 113 µM [activator, partial curve, poor fit]"
same,Potency,[8],inactive
same,Potency,[14],inactive
CCC(C)c1ccc(O)cc1 (configuration not stated),Potency,[9],"inconclusive: 49.4 µM [activator, single point] and inconclusive: 49 µM [activator, single point]"
same,Potency,[15],"inconclusive: 43.6 µM [activator, single point]"
same,Potency,[14],"inconclusive: 195 nM [inhibitor, full curve, poor fit] and inactive"

# — PubChem BioAssay (Tox21)
